# Out of some 410,000 compounds screened, about 530 (0.13%) were called active. Inconclusive results, whose numbers are uncertain, are shown with a selection of clear calls. The call rests on the fitted dose curve; in most records, active means well fitted inhibition curve with a large enough effect; inconclusive means small, poorly fitted or top-dose-only effect, or another doubt; inactive means no such curve, though single readings can be large or run the other way. A potency beside an inconclusive call is a rough fit, not a confirmed value.
# Experiment: qHTS of GLP-1 Receptor Inverse Agonists: Cytotox Screen
# Conditions: HEK293 cAMP-luciferase reporter cells, luminescence, 24 h; activity change, negative = inhibition: at 38.3 µM (top of the series) unless noted
# How it was run: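 Here, cytotoxicity is scored as loss of luminescence. The MLSMR collection was tested on cells seeded in medium containing 10% Nu serum, with a 24 hr compound exposure preceded by 12 hours of culture.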
# On the % scale 0 is the no-effect control and ±100 the full control effect; potency means the concentration at half of the fitted maximal effect.
SMILES,Potency,"activity change, negative = inhibition"
c1ccc2c(c1)OCCOCCOCCOCCOCCOc1ccccc1OCCOCCOCCO2,"inconclusive: 28.2 µM [inhibitor, single point]",
O=C(c1cn(Cc2ccccc2)nc1-c1ccc(Cl)cc1)N1CCN(c2ccccn2)CC1,"inconclusive: 14.1 µM [inhibitor, single point]",
Cc1cccc(-c2ccc(NC(=O)C3CCN(CC4CC4)CC3)cc2)c1,"inconclusive: 28.2 µM [inhibitor, single point]",
CCN1C(=O)C(CC(=O)Nc2ccc(Br)cc2)N(CCCc2ccccc2)C1=S (stereo not drawn),"inconclusive: 28.2 µM [inhibitor, single point]",
COc1ccc(CCC(=O)N2CCc3c([nH]c4ccccc34)C2c2ccc(F)cc2)cc1 (stereo not drawn),,inactive: -6.26%
COc1ccc(C2COc3cc(O)ccc3C2)c(OC)c1O (stereo not drawn),"inconclusive: 12.6 µM [inhibitor, partial curve]",
Cc1noc(C)c1COC(=O)CCOc1ccccc1,,inactive: 6.78%
CC1(C(=O)NCCC(F)(F)F)Cc2c(-c3cccc(C(F)(F)F)c3)ccnc2O1 (stereo not drawn),"inconclusive: 8.91 µM [inhibitor, partial curve]",
Cc1cc(C(=O)NNc2ccccc2F)no1,"inconclusive: 3.98 µM [inhibitor, partial curve]",
NS(=O)(=O)c1ccc(F)c(C(=O)O)c1,"inconclusive: 5.62 µM [inhibitor, full curve, poor fit]",
CCC(=O)NC(c1ccccc1)c1c(OC(C)=O)ccc2ccccc12 (stereo not drawn),,inactive: 7.16%
Cc1cccc2cc(C#N)c(SCC(=O)N3CC(=O)Nc4ccccc43)nc12,"inconclusive: 0.316 µM [inhibitor, full curve, poor fit]",
Cc1ccsc1C(=O)C1CCCN(Cc2cccn2-c2ccc(Cl)cn2)C1 (stereo not drawn),"inconclusive: 12.6 µM [inhibitor, single point]",
Cc1ccc(C)c(NC(=S)NCCc2ccc(F)cc2)c1,"inconclusive: 28.2 µM [inhibitor, single point]",
CC(C)(C)c1ccc(SC2=C[C@@]3(O)CC[C@@H](O)[C@@](Sc4ccc(C(C)(C)C)cc4)(C2=O)[C@H]3O)cc1,"inconclusive: 28.2 µM [inhibitor, single point]",
COc1cccc(C(=O)Nc2ccc(N3CCCC3)cc2)c1,"inconclusive: 7.08 µM [inhibitor, partial curve]",
C=CCn1c(-c2cccc(Cl)c2)n[nH]c1=S,"inconclusive: 12.6 µM [inhibitor, single point]",
Cc1cccc(NC(=S)N/N=C/c2cccc([N+](=O)[O-])c2)c1,"inconclusive: 2.51 µM [inhibitor, full curve, poor fit]",
COCCNc1nc(Nc2ccc(C)cc2C)c2sccc2n1,"inconclusive: 3.16 µM [inhibitor, partial curve, poor fit]",
c1ccc(COc2ccc(OCCCN3CCCCC3)cc2)cc1,,inactive: -8.11%
Cc1cc2ccccn2c1C(=O)c1cccc([N+](=O)[O-])c1,,inactive: -16.1%
CCN(CC)S(=O)(=O)c1ccc(N2CCN(S(=O)(=O)c3ccccc3)CC2)nc1,"inconclusive: 22.4 µM [inhibitor, single point]",
COc1cc(OC)c(OC)cc1/C=C1\CCC/C(=C\c2cc(OC)c(OC)cc2OC)C1=O,"inconclusive: 14.1 µM [inhibitor, partial curve, poor fit]",

SMILES,Potency,"activity change, negative = inhibition"
Cc1cc(C)c(S(=O)(=O)Nc2ccc3c(c2)CCC3)c(C)c1,"inconclusive: 28.2 µM [inhibitor, single point]",
Cc1ccc(OCC(=O)N(Cc2cccc(Cl)c2)C2CCS(=O)(=O)C2)cc1C (stereo not drawn),"inconclusive: 7.94 µM [inhibitor, partial curve]",
COc1ccc(-n2nnnc2S(=O)(=O)CC(=O)N2CCCCC2)cc1,,inactive: -21.4%
COc1ccc(F)c(-c2nc(CN3CCC(c4ccccc4)CC3)c(C)o2)c1,"inconclusive: 12.6 µM [inhibitor, single point]",
Cc1ccc(NC(=O)c2cc(S(=O)(=O)N3CCc4ccccc43)ccc2F)cc1Cl,,inactive: 0.252%
Nn1cnnc1N/N=C\c1ccc(-c2ccccc2[N+](=O)[O-])o1,"inconclusive: 28.2 µM [inhibitor, single point]",
CC(C)(C)C(=O)NC(=S)NNC(=O)c1ccncc1,,inactive: 8.13%
NC(=S)NN=C1c2ccccc2-c2ccccc21,active: 1.41 µM,
Cc1cc(C)c(C)c(S(=O)(=O)N2CCC(C(=O)NNC(=O)c3ccccc3O)CC2)c1C,"inconclusive: 10 µM [inhibitor, single point]",
CSc1nc2ccccc2cc1/C=C(\C#N)c1cccc(Cl)c1,"inconclusive: 7.08 µM [inhibitor, partial curve]",
N#Cc1cccc(OCCCN2CCC(C(O)(c3ccccc3)c3ccccc3)CC2)c1,,inactive: -29.7%
CCOc1ccc(NC(=O)CN2CCN(CC(=O)Nc3cc(OC)cc(OC)c3)CC2)cc1,"inconclusive: 28.2 µM [inhibitor, single point]",
C=C(C)CNC(=S)N/N=C/c1c(F)cccc1F,"inconclusive: 4.47 µM [inhibitor, full curve, poor fit]",
Cc1ccccc1C(=O)OCc1cc(=O)n2nc(-c3cccs3)sc2n1,,inactive: 7.82%
Clc1ccc(-n2nnnc2Sc2ncnc3sccc23)cc1,"inconclusive: 11.2 µM [inhibitor, partial curve, poor fit]",
CC(=O)c1c(N2CCN(C)CC2)[nH]c(-c2ccccc2)nc1=S,"inconclusive: 15.8 µM [inhibitor, partial curve, poor fit]",
Cc1c(C)[n+](=O)c2c(n1[O-])C(Br)CCC2Br (stereo not drawn),"inconclusive: 28.2 µM [inhibitor, single point]",
C=CCN=C1NN=C(c2cc(C)n(CC=C)c2C)CS1,"inconclusive: 22.4 µM [inhibitor, single point]",
CC1=C(C(=O)Nc2ccccc2)C(c2cccs2)n2nc(SCc3ccccc3F)nc2N1 (stereo not drawn),,inactive: 0.938%
Cc1cccnc1NC(=S)Nc1ccc(Cl)c(Cl)c1,"inconclusive: 12.6 µM [inhibitor, single point]",
CCCCCCCCCCOC(=O)Cn1c(COc2ccc(Cl)cc2)[n+](C)c2ccccc21,"inconclusive: 20 µM [inhibitor, partial curve, poor fit]",
Cn1cc([N+](=O)[O-])c(C(=O)Nc2sc3c(c2C#N)CCC3)n1,"inconclusive: 5.62 µM [inhibitor, full curve, poor fit]",
COc1cc(Cl)c(C)cc1NC(=O)CNC(C)c1ccccc1OC (stereo not drawn),,inactive: 8.29%

SMILES,Potency,"activity change, negative = inhibition"
CC(OC(=O)CCC(=O)c1cccs1)C(=O)Nc1ccc(Cl)cn1 (stereo not drawn),"inconclusive: 15.8 µM [inhibitor, single point]",
CCn1cc(S(=O)(=O)c2cccc(Cl)c2)c(=O)c2cc(F)c(N3CCN(c4ccccc4)CC3)cc21,,inactive: 5.82%
CC1=C(C)C(c2ccccc2)NC(=S)N1 (stereo not drawn),"inconclusive: 22.4 µM [inhibitor, single point]",
CCOC(=O)C1(Cc2cccc(OC)c2)CCN(Cc2cccn2-c2ccccn2)CC1,"inconclusive: 28.2 µM [inhibitor, single point]",
O=C(CN1CCN(S(=O)(=O)c2ccccc2)CC1)Nc1ccc([N+](=O)[O-])cc1,"inconclusive: 11.2 µM [inhibitor, single point]",
CSc1cccc(NC(=O)c2ccc(CN3CCc4ccccc4C3)cc2)c1,,inactive: -7.74%
CN(C)c1ccc(-c2nc3ccccn3c2/N=C/c2ccc(Br)cc2)cc1,"inconclusive: 14.1 µM [inhibitor, single point]",
Cc1ccc(NC(=O)C2CCC(CNS(=O)(=O)c3csc(C(N)=O)c3)CC2)cc1Cl (stereo not drawn),,inactive: -2.15%
CCOc1ccc(CN(C)C(=O)CNC(=O)c2cc(OC)c(OC)c(OC)c2)cc1,,inactive: 2.5%
CCOC(=O)c1sc(N2C(=O)C(O)=C(C(=O)c3ccco3)C2c2cccc([N+](=O)[O-])c2)nc1C (stereo not drawn),"inconclusive: 10 µM [inhibitor, partial curve, poor fit]",
Cc1ccc(NS(=O)(=O)c2ccc3c(c2)CCCN3C(=O)C2CCC2)c(C)c1,,inactive: -0.376%
CCCCS/C(N)=N/N=C/c1ccccc1O,active: 2.82 µM,
S=C(Nc1ccccn1)NC1CCCCC1,"inconclusive: 11.2 µM [inhibitor, partial curve, poor fit]",
COc1ccc(O)c(C(=O)c2cnc3c(c2)c(C)nn3CCO)c1,"inconclusive: 1.41 µM [inhibitor, full curve, poor fit]",
O=C(Cn1cnc2ccccc21)N/N=C/C(Br)=C/c1ccccc1,"inconclusive: 12.6 µM [inhibitor, single point]",
COc1ccc(N2CCN(C(=O)c3cc([N+](=O)[O-])ccc3N3CCN(CCO)CC3)CC2)cc1,"inconclusive: 28.2 µM [inhibitor, single point]",
CCOc1ccc2nc(N(CCN(CC)CC)C(=O)c3cccc([N+](=O)[O-])c3)sc2c1,,inactive: 4.36%
COc1ccc2c(C)nc(Nc3nc(-c4ccccc4)cc(=O)[nH]3)nc2c1,"inconclusive: 11.2 µM [inhibitor, partial curve]",
COc1ccc2c(c1)c1c(c(=O)n(-c3ccc(F)c(Cl)c3)c(=O)n1Cc1ccccc1C)n2C,,inactive: -0.524%
O=C(Cn1ncn2nc(-c3ccccc3)cc2c1=O)NCc1ccccn1,"inconclusive: 28.2 µM [inhibitor, single point]",
CNS(=O)(=O)c1cc(Nc2ncnc3sccc23)ccc1C,,inactive: 5.47%
COc1cc(CNc2ncnc3c2ncn3[C@H]2CN(Cc3ccccc3)C[C@@H](COC(C)=O)O2)cc(OC)c1OC,,inactive: 2.29%

# From PubChem BioAssay AID624418 (National Center for Advancing Translational Sciences (NCATS), 2012)
